The text below walks through data of PubChem BioAssay AID2202238 (Ras Initiative Chemistry Research Team, Frederick National …, 2025).

SMILES strings stand for the structures. The list shows a part of the results. The main result of the screen is listed elsewhere. These columns were measured beside it and carry no call.

For this experiment, the target named is GTPase KRas (Homo sapiens) (UniProt P01116). The experiment in a line: Covalent labelling of cysteine mutants by fragments, read by mass spectrometry (AID 2202238). Set-up: protein at 5 µM with 500 µM competing thiol for 1.5 h. Particulars: KRAS G12D cysteine mutants, disulfide tethering, MALDI-TOF labeling, stronger effect = higher value, fragment at 500 µM.
Chain of UniProt P01116 (P01116 whole entry, looked up, the tested form may be a part): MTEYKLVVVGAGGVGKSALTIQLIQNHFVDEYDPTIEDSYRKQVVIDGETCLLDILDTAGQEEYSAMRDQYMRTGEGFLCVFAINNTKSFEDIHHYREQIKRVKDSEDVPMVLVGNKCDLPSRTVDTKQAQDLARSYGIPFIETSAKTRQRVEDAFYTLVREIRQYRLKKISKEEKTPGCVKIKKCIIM
The mark [1] stands for this setting: measured here: G60C mutant labeling.
Where [2] appears, read: measured here: G75C mutant labeling.
The mark [3] stands for this setting: measured here: H94C mutant labeling.
Setting [4] is: measured here: I36C mutant labeling.
Where [5] appears, read: measured here: L120C mutant labeling.
[6] abbreviates: measured here: M67C mutant labeling.
The mark [7] stands for this setting: measured here: M72C mutant labeling.
[8] abbreviates: measured here: N26C mutant labeling.
Setting [9] is: measured here: N86C mutant labeling.
Where [10] appears, read: measured here: P121C mutant labeling.
Where [11] appears, read: measured here: S122C mutant labeling.
Where [12] appears, read: measured here: S136C mutant labeling.

`CCCc1c(C(=O)NCCS)cnn1-c1ccccc1`: the percent labeling by setting is: under setting [1], 41.2%; under setting [2], 22.2%; under setting [3], 29.5%; under setting [4], 20.9%; under setting [5], 31.2%; under setting [6], 23.4%. The percent labeling was determined as 62.1% under setting [7]; 38.1% under setting [8]; 19.3% under setting [9]; 23% under setting [10]; 22.2% under setting [11]; 51.4% under setting [12].

For the compound `O=C(NCCS)c1nc2ccc(Br)cn2n1`, the percent labeling was 46.7% under setting [1]; 33% under setting [2]; 37.5% under setting [3]; 35.1% under setting [4]; 52.1% under setting [5]; 39.6% under setting [6]. In addition, the percent labeling by setting is: under setting [7], 65.7%; under setting [8], 49.2%; under setting [9], 30.9%; under setting [10], 55.9%; under setting [11], 32.3%; under setting [12], 50%.

Consider `O=C(NCCS)c1ccc(-c2n[nH]c(C3CC3)n2)cc1`, for which the percent labeling is, setting by setting: under setting [1], 24.1%; under setting [2], 13.2%; under setting [3], 12.1%; under setting [4], 15.8%; under setting [5], 19.3%; under setting [6], 19.3%. The percent labeling runs as follows: under setting [7], 33.7%; under setting [8], 41.2%; under setting [9], 27.6%; under setting [10], 15.3%; under setting [11], 16.7%; under setting [12], 32.3%.

In turn, `O=C(CCS)NCCn1cnc2sccc2c1=O` returned a percent labeling under setting [2] of 9.5%; a percent labeling under setting [3] of 31.3%; a percent labeling under setting [4] of 38%; a percent labeling under setting [5] of 36.7%; a percent labeling under setting [6] of 35.9%; a percent labeling under setting [7] of 19.1%. For the same compound, the percent labeling by setting is: under setting [9], 19.7%; under setting [10], 31.7%; under setting [11], 31.2%; under setting [12], 54.1%.

On to `C[C@@H]1CN(c2ccccn2)C[C@H]1C(=O)NCCS`, for which the percent labeling by setting is: under setting [1], 52.2%; under setting [2], 21.3%; under setting [3], 34.3%; under setting [4], 30.3%; under setting [5], 35.7%; under setting [6], 42.9%. The percent labeling amounted to 30% under setting [7]; 46.7% under setting [8]; 33.2% under setting [9]; 33.8% under setting [10]; 31.2% under setting [11]; 54.6% under setting [12].

Take `O=C(CCS)NCc1c2c(n[nH]c1=O)CCCC2`: the percent labeling was 11.1% under setting [2]; 29.2% under setting [3]; 30.3% under setting [4]; 40% under setting [5]; 35.7% under setting [6]; 20.6% under setting [7]. The percent labeling by setting is: under setting [9], 11.5%; under setting [10], 30.9%; under setting [11], 35.2%; under setting [12], 54.1%.

In the case of `O=C(Cn1cnc2scc(-c3cccs3)c2c1=O)NCCS`, the percent labeling runs as follows: under setting [1], 19.8%; under setting [2], 7.2%; under setting [3], 10.1%; under setting [4], 19.1%; under setting [5], 15.4%; under setting [6], 9.4%. The percent labeling reads like this: under setting [7], 19.5%; under setting [8], 16.5%; under setting [9], 7.3%; under setting [10], 6.9%; under setting [11], 3.5%; under setting [12], 14.9%.

Turning to `CC(C)(C)OC(=O)N1CCC(C2CCN(C(=O)CCS)CC2)CC1`, the percent labeling runs as follows: under setting [2], 22.5%; under setting [3], 27.3%; under setting [4], 29.8%; under setting [5], 20.6%; under setting [6], 31.5%; under setting [7], 33.6%. Besides, the percent labeling under setting [9] turned out to be 21.9%, the percent labeling under setting [10] was found to be 27.3%, the percent labeling under setting [11] worked out at 20.6% and the percent labeling under setting [12] was 52.2%.

The compound `O=C(CCS)NCCN1CCN(c2ncccn2)CC1` returned a percent labeling under setting [2] of 12.2%; a percent labeling under setting [3] of 32.2%; a percent labeling under setting [4] of 45%; a percent labeling under setting [5] of 40.2%; a percent labeling under setting [6] of 42.7%; a percent labeling under setting [7] of 16.8%. The percent labeling reads like this: under setting [9], 24.1%; under setting [10], 31.7%; under setting [11], 35%; under setting [12], 52.7%.

For the compound `O=C(NCCS)c1ccc2c(c1)nnn2CCc1ccccc1`, the percent labeling reads like this: under setting [1], 7.2%; under setting [2], 4.5%; under setting [3], 6.8%; under setting [4], 11.8%; under setting [5], 9.9%; under setting [6], 10.3%. In addition, the percent labeling turned out to be 29.6% under setting [7]; 21.7% under setting [8]; 4.9% under setting [9]; 7.2% under setting [10]; 4.5% under setting [11]; 11.7% under setting [12].

On to `O=C(CCS)NCc1cccc(N2CCCC2=O)c1`, for which the percent labeling by setting is: under setting [2], 10.9%; under setting [3], 36.3%; under setting [4], 39%; under setting [5], 30.4%; under setting [6], 37.3%; under setting [7], 22.3%. The percent labeling is, setting by setting: under setting [9], 18.5%; under setting [10], 30.9%; under setting [11], 34.2%; under setting [12], 50.6%.

As to `O=C(NCCS)c1ncoc1CCC(F)(F)F`, the percent labeling under setting [1] is 28%; the percent labeling under setting [2] is 19.8%; the percent labeling under setting [3] is 35.8%; the percent labeling under setting [4] turned out to be 15.8%; the percent labeling under setting [5] stood at 37.8%; the percent labeling under setting [6] came to 23.6%. Further, the percent labeling runs as follows: under setting [7], 38.6%; under setting [8], 31%; under setting [9], 21%; under setting [10], 26.4%; under setting [11], 28.4%; under setting [12], 40.2%.

For `O=C(NCCS)C1CCCN(C(=O)N2CCc3sccc3C2)C1` (stereo not drawn), the percent labeling is 29.1% under setting [1]; 7.7% under setting [2]; 18.3% under setting [3]; 14.5% under setting [4]; 16.5% under setting [5]; 28.7% under setting [6]. Also, the percent labeling under setting [7] is 17.9%; the percent labeling under setting [8] amounted to 34.1%; the percent labeling under setting [9] was 7.6%; the percent labeling under setting [10] was 15.7%; the percent labeling under setting [11] is 16.8%; the percent labeling under setting [12] was 36%.

With `CC1(C)Cc2c(cnn2-c2ccccc2)CN(C(=O)CCS)C1`, the percent labeling is 26.3% under setting [2]; 37.7% under setting [3]; 35.4% under setting [4]; 27.2% under setting [5]; 55.8% under setting [6]; 51.6% under setting [7]. Further, the percent labeling under setting [9] was determined as 27.3%, the percent labeling under setting [10] turned out to be 31.2%, the percent labeling under setting [11] is 31.4% and the percent labeling under setting [12] turned out to be 53.6%.

For the compound `O=C(NCCS)c1ccn(CC(F)(F)F)c(=O)c1`, the percent labeling stood at 23.5% under setting [1]; 13.9% under setting [2]; 31.8% under setting [3]; 24.8% under setting [4]; 35% under setting [5]; 31.9% under setting [6]. Besides, the percent labeling was found to be 24.8% under setting [7]; 37% under setting [8]; 26.6% under setting [9]; 31.3% under setting [10]; 32.9% under setting [11]; 45% under setting [12].
